Measured values taken from PubChem BioAssay AID1956 (SRMLSC, 2009).
The other results are listed elsewhere or left out. Shown are side measurements of this screen, not its main read-out; they come without a call.

Test: enhancers of HSV replication in host cells, fold increase, host cell viability (AID 1956); note: tested in PC3 cells
Details: HSV replication augmentation in cells; fold increase: measured here: primary screen fold increase 10 uM, at 10 µM, stronger effect = higher value; viability: measured here: host cell viability series, at 25 µM, stronger effect = lower value

Structure (SMILES) | fold increase | viability [%]
CN1C2CCC1/C(=C/c1cccn1C)C(=O)/C2=C\c1cccn1C | 5.95 | 
N#C/C(=C/c1ccncc1)c1nc2ccccc2s1 | 4.46 | 104
Cc1[nH]c2ccccc2c1Cc1nnc(SCc2ccccc2)o1 | 1.35 | 97.4
COc1ccc2nc(Nc3sc4c(c3C(N)=O)CCCC4)sc2c1 | 1.55 | 99.2
Nc1c(C(=O)c2ccccc2)sc2nsc(SCCN3CCCC3)c12 | 1.78 | 47.3
CCOCCCn1c(C)nc2c(c1=O)c1nc3ccccc3nc1n2-c1ccc(C)cc1 | 1.42 | 98.1
CCN1C(=O)CS/C1=C(\C#N)S(=O)(=O)c1ccccc1 | 1.35 | 98.1
CN(C)c1ccc(/C=C2\SC(=S)N(Nc3ncc(C(F)(F)F)cc3Cl)C2=O)cc1 | 1.92 | 98.5
O=C(COc1ccccc1)N1CCN(S(=O)(=O)c2ccc(Cl)cc2)CC1 | 1.42 | 97.6
Cc1ccc(N2C(=O)c3cccc4c(N5CCN(C)CC5)ccc(c34)C2=O)c2cccnc12 | 1.8 | 75.3
O=C(C1=NN(c2ccccc2)C2C(=O)N(c3ccccc3)C(=O)C12)c1ccccc1 (stereo not drawn) | 3.38 | 
Cc1c(Nc2c3c(c(C#N)c4nc5ccccc5n24)CCC3)c(=O)n(-c2ccccc2)n1C | 1.59 | 
COc1ccc(C(=O)/C=C/Nc2cccc(O)c2)cc1 | 2.03 | 99.5
O=C1c2ccccc2-c2onc3ccc(N4CCCC4)c1c23 | 3.64 | 91.6
CC(=O)Nc1ccc(S(=O)(=O)Nc2nc3ccccc3nc2Nc2ccc3ccccc3c2)cc1 | 1.45 | 
CC(C)OC(=O)c1c2c(n3ccccc13)C(=O)c1ccccc1C2=O | 3.74 | 
O=C(Nc1ccccc1)C1CC(=O)n2ncnc2N1 (stereo not drawn) | 1.39 | 103
S=c1[nH]nc(-c2ccc(Br)cc2)n1-c1ccc2c(c1)OCCO2 | 1.32 | 
CCOC(=O)c1c(C)oc2c1c(C=NCCO)c(O)c1ccccc12 | 1.34 | 93.1
Cc1ccc(C(=O)N/C(=C\c2ccc(-c3ccc([N+](=O)[O-])cc3)o2)C(=O)NC2CCS(=O)(=O)C2)cc1 (stereo not drawn) | 1.53 | 92.1

Structure (SMILES) | fold increase | viability [%]
Cc1cc(=O)[nH]c(-n2nc(C)cc2C)n1 | 1.06 | 
CCCN(CCC)CC(O)Cn1cc(/C=C/C(=O)c2cccs2)c2ccccc21 (stereo not drawn) | 1.37 | 67.5
CC(C)c1ccc(NC(=O)CNS(=O)(=O)c2ccc(F)cc2)cc1 | 1.38 | 93.3
COC(=O)c1sc2nc(CSc3ccc(Br)cc3)[nH]c(=O)c2c1C | 1.66 | 97.8
NCCc1nc(-c2ccccc2)cs1 | 1.82 | 92.1
O=C(N/N=C/c1ccc[nH]1)c1ccccc1[N+](=O)[O-] | 1.34 | 95
Oc1[nH]c(=S)sc1/C=C1\C(c2ccccc2)=Nc2ccccc21 | 1.78 | 83.8
CC(=O)[C@]1(O)Cc2c(O)c3c(c(O)c2[C@@H](O[C@H]2C[C@H](N)[C@H](O)[C@H](C)O2)C1)C(=O)c1ccccc1C3=O | 5.37 | 13.8
COC(=O)C1=C(C)N(c2ccc(F)cc2)/C(=C/c2ccc(O)cc2)C1=O | 1.98 | 96.3
Nc1ccccc1Nc1cc(-c2ccccc2)nn1-c1cccc(Cl)c1 | 1.33 | 90.6
Cc1[nH]c(=O)[nH]c(=O)c1NC(=O)c1sc2nc3c(C)cccc3cc2c1N | 1.33 | 100
CCCCCCc1cc2cc(-c3nnc(-c4ccccc4OC)o3)c(=O)oc2cc1O | 3.26 | 43.7
O=C(c1ccc(Cl)cc1)[C@@H]1[C@@H]2C(=O)N(c3ccc(Cl)cc3)C(=O)[C@@H]2C2c3ccccc3C=NN21 (stereo partly drawn) | 1.4 | 101
COc1ccccc1NS(=O)(=O)c1cc([N+](=O)[O-])ccc1N/N=C/c1sc(N2CCOCC2)nc1-c1ccccc1 | 2.73 | 82.5
CC(=O)c1ccc(NC(=O)c2ccc3nc(-c4ccco4)c(-c4ccco4)nc3c2)cc1 | 1.28 | 
Cc1ccc(-c2ccc(SCC(=O)N3CCN(c4ccccc4)CC3)nn2)cc1 | 1.42 | 92.2
CCC(=O)Oc1ccc2c(c1)O/C(=C\c1ccco1)C2=O | 4.68 | 99.8
CSc1nsc(/C=C/Nc2ccc(O)cc2C)c1C#N | 1.96 | 84.3
Cn1cc(Br)c(NC(=O)/C=C/C(=O)O)n1 | 1.38 | 94.8
CCOC(=O)c1c(NC(=O)c2cc3n(n2)C(C(F)(F)F)CC(c2cccs2)N3)sc(C)c1C (stereo not drawn) | 1.45 | 35.8

Structure (SMILES) | fold increase | viability [%]
Cc1ccc(S(=O)(=O)Nc2cc3c(C(=O)Nc4ccccc4)c(C)oc3c3ccccc23)cc1 | 1.46 | 97.4
COc1cc(/C=C(\C#N)c2nc3c(s2)CC(C)CC3)ccc1O (stereo not drawn) | 3.83 | 95.4
Cn1c(=O)c(Nc2ccc(O)cc2)c2c3c(cccc31)C(=O)c1ccccc1-2 | 1.37 | 
COc1ccc(OC)c(S(=O)(=O)Nc2ccc(O)c(Sc3ncn[nH]3)c2)c1 | 1.32 | 99
CCOC(=O)c1c(=O)n(O)c2ccc(OC)cc2[n+]1[O-] | 1.3 | 
N#C/C(=C\c1ccco1)C(=O)Nc1cccc2ncccc12 | 1.83 | 96.6
N#CC(C#N)=C1C=CC=CN1/C(=C\c1ccco1)C(=O)c1ccc(-c2ccccc2)cc1 | 1.52 | 29.4
CCOC(=O)c1c(CC(C)C)csc1/N=C/C1C(=O)CC(C)(C)CC1=O | 1.44 | 97.4
CCOC(=O)c1nn(-c2ccc(Cl)cc2Cl)c(=N)c(C#N)c1C | 1.42 | 
Cc1occc1C(=O)N/N=C/C1=C(N2CCOCC2)C(=C\c2ccc(Cl)cc2)/CC1 | 1.36 | 94.5
CCOC(=O)C1=C(N)N2C(=O)C(C)SC2=C(C(=O)OC)C1c1cccc(OC)c1 (stereo not drawn) | 1.37 | 97.7
C/C(=C/C(=O)NCc1ccccc1)C(=O)O | 1.4 | 102
CC1=CC(C)(C)N2C(=O)C(=O)c3cc(OC(=O)c4ccco4)cc1c32 | 2.24 | 44.1
CCc1nc2oc3cc(OC)ccc3c(=O)c2c(=O)n1Cc1ccco1 | 1.36 | 
Cc1ccc(OC(C)C(=O)N(Cc2cccs2)C2CCS(=O)(=O)C2)cc1C (stereo not drawn) | 1.35 | 96.7
CN1CCc2c(sc(/N=C/c3c[nH]c4ccccc34)c2C#N)C1 | 2.01 | 100
COc1cccc(C(=O)NCc2ccc3c(c2)cc(C)n3C)c1 | 1.36 | 94.3
CCOC(=O)/C(C#N)=C\c1ccc(N2CCN(C/C=C/c3ccccc3)CC2)cc1 | 1.35 | 
